In PubChem BioAssay AID485294 (National Center for Advancing Translational Sciences (NCATS), 2010):
Screen size: about 370,000 compounds; about 150 (0.041%) were called active. The shares of active, inactive and inconclusive entries below differ from those in the screen. Calls come from the whole dose curve; as a rule, active = well fitted inhibition curve with a large enough effect; inconclusive = small, poorly fitted or top-dose-only effect; inactive = flat fitted curve, though single readings scatter. Potencies of inconclusive entries are left out as doubtful fits.

Target: Beta-lactamase (Escherichia coli (strain K12)) (UniProt P00811)
Chain of UniProt P00811 (P00811 whole entry, looked up): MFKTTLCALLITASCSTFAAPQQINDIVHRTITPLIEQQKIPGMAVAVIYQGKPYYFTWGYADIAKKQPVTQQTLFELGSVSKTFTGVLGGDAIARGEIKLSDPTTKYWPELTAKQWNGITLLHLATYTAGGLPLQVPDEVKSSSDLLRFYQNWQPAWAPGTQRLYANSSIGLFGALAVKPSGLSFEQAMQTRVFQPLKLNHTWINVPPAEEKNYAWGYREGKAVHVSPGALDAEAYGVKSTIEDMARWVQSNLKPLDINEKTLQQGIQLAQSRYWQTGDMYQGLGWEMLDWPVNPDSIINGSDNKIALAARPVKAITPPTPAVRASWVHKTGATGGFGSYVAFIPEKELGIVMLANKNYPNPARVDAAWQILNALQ
Experiment: qHTS Inhibitors of AmpC Beta-Lactamase (assay with detergent); note: nearly all actives have a fitted effect of over 25% in size;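 for activity change, negative = inhibition: 0% = no-compound wells and -100% = no-enzyme wells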
Conditions: AmpC hydrolysis of nitrocefin, absorbance 480 nm, 0.01% Triton; activity change, negative = inhibition: at 114 µM (top of the series)
Procedure, shortened: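 20 mM phosphate pH 7.0 + 0.01% (detergent screen) or 0.0001% Triton X-100; 5.3 nM AmpC reagent; cpd preinc 15 min RT; nitrocefin (800 uM stock) to start; A480 q20 s × 4 min; Activity was normalised to no-enzyme and no-compound control wells.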
Potency is the fitted concentration of half-maximal effect; tags give direction and shape of the fitted curve.

| SMILES | activity change, negative = inhibition | Potency |
| --- | --- | --- |
| CCCN1CN(Cc2ccco2)c2nc3ccccc3n2C1 | inactive: -2.25% |  |
| O=C(CCNC(=O)c1ccc([N+](=O)[O-])cc1)NCCC1=CCCCC1 |  | inconclusive [inhibitor, full curve, poor fit] |
| CCOC(=O)N1CCN(C(=O)C2CCN(Cc3nc(-c4ccccc4C)oc3C)CC2)CC1 |  | inconclusive [inhibitor, full curve, poor fit] |
| COc1ccc(OC)c(Nc2cc(C)c3ccccc3n2)c1 |  | inconclusive [inhibitor, partial curve, poor fit] |
| Cc1ccc(NC(=O)N2CCCCCC2)cc1C | inactive: 1.75% |  |
| CC(C)CCN(C(=O)CNC(=O)c1ccco1)C(C(=O)NC1CCCCC1)c1ccco1 (stereo not given) |  | inconclusive [inhibitor, full curve, poor fit] |
| CCOC(=O)C1(CCc2ccccc2)CCN(C(=O)c2occc2C)CC1 | inactive: -2.75% |  |
| N#Cc1c(-c2ccc(F)cc2)ccnc1N1CCOCC1 | inactive: -5.53% |  |
| Fc1ccc(Oc2nc(-c3ccccc3)nnc2C(F)(F)F)cc1 | inactive: 2.43% |  |
| CC(C)CC(=O)Nc1cccc2c1C(=O)N(c1ccccc1)C2=O |  | inconclusive [inhibitor, partial curve] |
| CCc1nnc(NC(=O)CSc2ccc(-c3ccccc3OC)nn2)s1 |  | inconclusive [inhibitor, full curve] |
| Cc1ccc(Cl)cc1-c1ccc(C=Nc2ccc(N3CCOCC3)cc2)o1 |  | inconclusive [inhibitor, partial curve] |
| COCCSc1nnc(NC(=O)c2ccco2)s1 | inactive: 3.56% |  |
| Cc1cccc(-c2nnc(NC(=O)c3ccc(N4C(=O)CCC4=O)cc3)s2)c1 |  | inconclusive [inhibitor, partial curve, poor fit] |
| O=C(c1ccc(Cl)c(Cl)c1)N1CCN(Cc2ccc3c(c2)OCO3)CC1 |  | inconclusive [inhibitor, full curve, poor fit] |
| Oc1ccccc1CNCCCN1CCOCC1 |  | inconclusive [inhibitor, full curve] |
| Nc1nc(OCC2CCCCC2)c2[nH]cnc2n1 |  | inconclusive [inhibitor, single point] |
| COc1cc2c(cc1NC(=O)C(C)Sc1ccc(NC(C)=O)cc1)oc1ccccc12 (stereo not given) | inactive: -10.3% |  |
| COc1ccc(-c2c(C#N)c(SCC(=O)c3cc4ccccc4oc3=O)nc(C)c2C(=O)Nc2ccccc2)cc1 |  | inconclusive [inhibitor, partial curve] |
| O=C(CCc1ccccc1)Nc1ccc(Cl)cn1 | inactive: -1.76% |  |
| Cc1cccc(NC(=O)Cn2nc(-c3ccccc3)c3cnc4ccccc4c32)c1 |  | inconclusive [inhibitor, partial curve, poor fit] |
| C=CCn1c(SCC(=O)Nc2ccc(-c3nc4ccc(C)cc4s3)cc2)nnc1-c1ccccc1 |  | inconclusive [inhibitor, single point] |
| CC1CCCC(C)N1CC(O)COC1CCC(C(C)(C)C)CC1 (stereo not given) | inactive: -13.5% |  |

| SMILES | activity change, negative = inhibition | Potency |
| --- | --- | --- |
| CCC(=O)N(CCC(c1ccc(C)cc1)c1ccco1)Cc1ccco1 (stereo not given) | inactive: 10.9% |  |
| CCCn1c(SCC(=O)c2ccc3c(c2)OCCO3)n[nH]c1=O |  | inconclusive [inhibitor, full curve, poor fit] |
| COc1ccccc1C(=O)NC(=O)COC(=O)c1cccc(OC(F)F)c1 |  | inconclusive [inhibitor, full curve, poor fit] |
| CN1C(=O)CSc2ccc(NC(=O)NCCC3=CCCCC3)cc21 |  | inconclusive [inhibitor, partial curve] |
| O=C(CSc1nc2ccccc2nc1N1CCCCC1)Nc1ccc(F)cc1 |  | inconclusive [inhibitor, full curve, poor fit] |
| COC(=O)c1ccccc1Nc1cc(C)nc2nc(C)nn12 |  | inconclusive [inhibitor, full curve, poor fit] |
| CC(=O)Nc1ccc(NC(=O)c2oc3c(c2C)-c2nn(Cc4ccccc4Cl)cc2CC3)cc1 | inactive: 21.4% |  |
| COc1ccc(C(C)=O)cc1CSc1nnc(SCc2cc(C(C)=O)ccc2OC)s1 |  | inconclusive [inhibitor, partial curve] |
| COc1ccc([N+](=O)[O-])cc1N(CC(O)CN1C(=O)NC(C)(C)C1=O)S(=O)(=O)c1ccccc1 (stereo not given) |  | inconclusive [inhibitor, partial curve] |
| Cc1ccc(NC(=O)CN2C(=O)CNC2=O)cc1 |  | inconclusive [inhibitor, single point] |
| CC(NC(=O)CCNC(=O)c1ccco1)c1ccccc1 (stereo not given) |  | inconclusive [inhibitor, full curve, poor fit] |
| Cc1ccc(N2CCN(C(=O)c3nn(C)c4c3CS(=O)(=O)c3ccccc3-4)CC2)c(C)c1 |  | inactive |
| O=C(CSc1nc2nc3c(cc2c(=O)n1-c1ccccc1)CCCC3)Nc1ccccc1 |  | inconclusive [inhibitor, single point] |
| COc1ccc(NC(=O)C2CCCC2)cc1S(=O)(=O)N1CCOCC1 | inactive: 4.9% |  |
| Cn1c(=O)[nH]c(=O)c2c1nc(Br)n2CC(O)COCc1ccccc1 (stereo not given) |  | inconclusive [inhibitor, partial curve, poor fit] |
| CCOC(=O)CSc1nc2ccccc2c(=O)n1NC(=O)c1ccccc1 | inactive: -8.52% |  |
| CN(C)CCN(Cc1ccccc1)c1nccc(N(C)C)c1C#N |  | inconclusive [inhibitor, full curve, poor fit] |
| COc1ccc(CN(C)C(=O)CSc2nnc(C3CC3)n2C2CC2)cc1 |  | inconclusive [inhibitor, full curve, poor fit] |
| CCN(C(=O)Nc1ccccc1)c1ccccc1 |  | inconclusive [inhibitor, full curve] |
| Brc1ccc(-c2ncc3ccccn23)cc1 | inactive: 0.472% |  |
| COc1ccc(-c2nc3n(c(=O)c2C#N)CCCS3)cc1 |  | inconclusive [inhibitor, single point] |
| Cc1cc(C)c(S(=O)(=O)N2CCCCC2CCNC(=O)C(=O)NCC2CCCO2)c(C)c1 (stereo not given) |  | inconclusive [inhibitor, single point] |
